These results are taken from ChEMBL document CHEMBL4888484, “Replenishing the malaria drug discovery pipeline: Screening and hit evaluation of the MMV Hit Generation Library 1 (HGL1) against asexual blood stage Plasmodium falciparum ,using a nano luciferase reporter read-out” (2022).

Hit rate of the full screen: of about 150,000 compounds, about 540 (0.36%) showed an effect of 50% or more. The list shows a part of the results.

In this experiment the test system is Plasmodium falciparum. Description: Primary screen in NF54 nanoGlo assay, in single point, at 2uM, 72h; a lower Z score goes with more inhibition. It counts as functional, Erythrocyte. The settings on record: timepoint 72 hour.
The % Inhibition is the change of the read-out against control, counted positive when it falls. Take `CC(C)(C)c1ccc(C(C)(C)C)c(-n2cnnc2)c1`: the “% Inhibition” value is -12% and the Z score came to 1.17.

In the case of `CC(C(=O)N1CCc2ncccc2C1)=C1CCCC1`, the “% Inhibition” value worked out at 5% and the Z score is -0.96.

As to `COc1cccc(CNC(=O)N2CC(O)(c3cccc(Br)c3)C2)n1`, the “% Inhibition” value is listed as -16% and the Z score is 3.24.

Regarding `CCn1cncc1[C@@H]1CCCCN1C(=O)Nc1conc1C`, the “% Inhibition” value is recorded as -3% and the Z score is on record as 0.37.

Turning to `Cc1ccc(Cn2nc(-c3ccccc3)c3cnc4ccccc4c32)cc1`, the “% Inhibition” value is reported as 10% and the Z score is listed as -1.96.

As for `CCS(=O)(=O)N1CCc2nc(NC(C)=O)sc2C1`, the “% Inhibition” value is on record as -6% and the Z score is 0.93.

Turning to `CCc1nc(C#N)cc(NC2CCCCC2C#N)n1` (stereo unspecified), the “% Inhibition” value is 10% and the Z score is -1.12.

As to `O=C1CC2(CCN(C(=O)c3ccon3)CC2)CN1Cc1ccc(F)c(F)c1`, the “% Inhibition” value is given as 1% and the Z score is -0.19.

As for `Cc1noc(C)c1CCC(=O)Nc1cc(C(C)(C)C)no1`, the “% Inhibition” value is on record as -8% and the Z score is on record as 0.7.

For the molecule `Cc1cccc(NC(=O)CN2CCn3nnc(-c4nc(-c5ccccc5)no4)c3C2=O)c1C`, the “% Inhibition” value is given as -14% and the Z score came to 1.6.

For the molecule `COC(=O)c1ccc(S(=O)(=O)Nc2nc(C3CC3)cs2)cn1`, the “% Inhibition” value is 1% and the Z score was -0.15.

On to `O=S(=O)(c1ccc(F)cc1)N1CCN(Cc2noc(-c3cccc(F)c3)n2)CC1`, for which the “% Inhibition” value is -10% and the Z score is given as 1.41.

For the molecule `Cc1ccnc(N2C(=O)[C@H](C)N(C3CCC3)C2=O)c1`, the “% Inhibition” value is recorded as -6% and the Z score is recorded as 0.7.

Consider `Cc1ccc(-c2noc(CN3C[C@@H]4NCCO[C@H]4C3)n2)cc1`, for which the “% Inhibition” value was -6% and the Z score stood at 0.94.

On to `C[C@@H](c1cccc(O)c1)N(C)CC(=O)NCC(F)(F)F`, for which the “% Inhibition” value is listed as -5% and the Z score stood at 0.49.

As to `O=C(Nc1ccc(S(=O)(=O)N(Cc2ccccc2)c2ccccc2)cc1)c1ccc(F)cc1`, the “% Inhibition” value is given as 18% and the Z score is -2.05.

For `O=C(NCc1ccccc1)[C@]1(F)CCN(S(=O)(=O)c2cccc3cccnc23)C1`, the “% Inhibition” value is recorded as -8% and the Z score came to 1.

Take `COc1ccc(/C=C/CN2C[C@H](C(=O)O)[C@@H](c3ccccc3OC)C2)cc1`: the “% Inhibition” value was 4% and the Z score was -0.45.

In the case of `CCc1ccc(-n2c(=O)c3c(n2CC(=O)N[C@@H](C)CCc2ccccc2)Oc2ccc(Cl)cc2C3)cc1`, the “% Inhibition” value is -8% and the Z score came to 1.04.

In the case of `CC(=O)Nc1nc(CC(=O)Nc2ncc(C)s2)cs1`, the “% Inhibition” value is -9% and the Z score amounted to 1.02.

`Clc1ccc(-c2n[nH]c(CN3CCOCC3)n2)cc1`: the “% Inhibition” value was -14% and the Z score amounted to 1.85.

With `CC(c1cccs1)N(C)C(=O)C1CCCC(C(=O)O)C1` (stereo unspecified), the “% Inhibition” value is on record as -3% and the Z score is listed as 0.43.

Consider `Cc1n[nH]c(CCC(=O)N2CCn3nc(C(=O)Nc4ccccc4)cc3C2)n1`, for which the “% Inhibition” value was 3% and the Z score is listed as -0.57.
